# Reference: US20060270591A1 (published 2006)
# T1: androgen receptor (AR), full-length, human (human, UniProt P10275 1-920)
# T1 construct: also called wtAR; full length AR
# T1 sequence: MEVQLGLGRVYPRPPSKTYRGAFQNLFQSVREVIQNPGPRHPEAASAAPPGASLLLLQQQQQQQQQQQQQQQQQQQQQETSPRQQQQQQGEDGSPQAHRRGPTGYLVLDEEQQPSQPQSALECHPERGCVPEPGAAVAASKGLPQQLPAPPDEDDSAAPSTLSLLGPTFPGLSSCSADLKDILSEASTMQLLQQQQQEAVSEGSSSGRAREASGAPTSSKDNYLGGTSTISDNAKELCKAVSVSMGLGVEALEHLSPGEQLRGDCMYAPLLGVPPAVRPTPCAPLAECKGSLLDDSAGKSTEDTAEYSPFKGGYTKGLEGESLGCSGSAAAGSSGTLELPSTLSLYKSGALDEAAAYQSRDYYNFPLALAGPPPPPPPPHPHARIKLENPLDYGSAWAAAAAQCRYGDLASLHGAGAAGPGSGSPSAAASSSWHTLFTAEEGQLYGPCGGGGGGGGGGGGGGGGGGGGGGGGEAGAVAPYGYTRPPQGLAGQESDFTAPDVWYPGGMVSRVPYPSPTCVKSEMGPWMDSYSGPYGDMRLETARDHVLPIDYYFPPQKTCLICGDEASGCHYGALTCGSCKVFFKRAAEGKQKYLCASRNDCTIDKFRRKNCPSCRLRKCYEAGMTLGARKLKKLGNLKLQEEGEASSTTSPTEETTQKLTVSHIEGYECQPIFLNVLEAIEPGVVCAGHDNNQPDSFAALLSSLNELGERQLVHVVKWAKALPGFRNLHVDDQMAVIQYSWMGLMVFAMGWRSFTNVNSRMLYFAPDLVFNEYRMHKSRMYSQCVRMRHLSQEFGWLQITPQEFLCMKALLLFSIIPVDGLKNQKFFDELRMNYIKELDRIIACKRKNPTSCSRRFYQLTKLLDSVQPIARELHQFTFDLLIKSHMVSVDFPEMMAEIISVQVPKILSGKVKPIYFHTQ
# B1: GST alone (other)
# chain: not shown
# notes: Control
# Biological target: T1, androgen receptor (AR), full-length, …
# Experiment: GST pull-down, Western blot with anti-AR NH27
binder,measurement,value
B1,binding result,no binding
